# Reference: the supplement of paper PMC8728848
# The list shows a part of the results.
# B1: Apa (Mycobacterium tuberculosis), Rv1860 (protein)
# chain: MHQVDPNLTRRKGRLAALAIAAMASASLVTVAVPATANADPEPAPPVPTTAASPPSTAAAPPAPATPVAPPPPAAANTPNAQPGDPNAAPPPADPNAPPPPVIAPNAPQPVRIDNPVGGFSFALPAGWVESDAAHFDYGSALLSKTTGDPPFPGQPPPVANDTRIVLGRLDQKLYASAEATDSKAAARLGSDMGEFYMPYPGTRINQETVSLDANGVSGSASYYEVKFSDPSKPNGQIWTGVIGSPAANAPDAGPPQRWFVVWLGTANNPVDKGAAKALAESIRPLVAPPPAPAPAPAEPAPAPAPAGEVAPTPTTPTPQRTLPA
# Experiments:
# Experiment in all cases: glycan array binding signal (z-score within array); higher = stronger binding
# Conditions in all cases: glycan notation: IUPAC condensed, linker removed
# [1] = target: Neu5Gc(a2-8)Neu5Gc(a2-3)Gal(b1-4)GlcNAc(b1-3)Gal(b1-4)GlcNAc
# Procedure, shortened: (§1)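 The binding signal is a Z-score computed within each array and averaged over linkers. Arrays of the same protein sequence at different concentrations or buffers were also averaged together. Data originate from 3228 arrays in the Consortium for Functional Glycomics database, kept only where the protein sequence was available.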
# [2] = target: Neu5Gc(a2-8)Neu5Gc(a2-6)Gal(b1-4)GlcNAc
# Procedure, shortened: as §1
# [3] = target: Neu5Gc(b2-6)Gal(b1-4)GlcNAc
# Procedure, shortened: as §1
binder,measurement,setting,value
B1,glycan array binding signal (z-score),[1],-0.408
same,glycan array binding signal (z-score),[2],0.532
same,glycan array binding signal (z-score),[3],-0.341
